Measurements from PubChem BioAssay AID1745853 (National Center for Advancing Translational Sciences (NCATS), 2022).
The other results are listed elsewhere or left out. The main result of the screen is listed elsewhere. These columns were measured beside it and carry no call.

Tests used:
Test in all cases: Primary Screen for Target Class Profiling of Small Molecule Inhibitors of Methyltransferases
[1] = target: Guanidinoacetate N-methyltransferase (Homo sapiens) (UniProt Q14353); details: purified enzyme, MTase-Glo SAH luminescence; measured here: GAMT inhibition; at 40 µM; stronger effect = lower value
Procedure, shortened: (§1)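 Each enzyme was reacted with SAM and its substrate, with compounds tested once at 40 uM; SAH formed was read by MTase-Glo luminescence.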

[2] = target: Nicotinamide N-methyltransferase (Homo sapiens) (UniProt P40261); details: purified enzyme, MTase-Glo SAH luminescence; measured here: NNMT inhibition; at 40 µM; stronger effect = lower value
Procedure, shortened: as §1

[3] = target: Phenylethanolamine N-methyltransferase (Homo sapiens) (UniProt P11086); details: purified enzyme, MTase-Glo SAH luminescence; measured here: PNMT inhibition; at 40 µM; stronger effect = lower value
Procedure, shortened: as §1

[4] = target: Glycine N-methyltransferase (Homo sapiens) (UniProt Q14749); details: purified enzyme, MTase-Glo SAH luminescence; measured here: GNMT inhibition; at 40 µM; stronger effect = lower value
Procedure, shortened: as §1

[5] = target: Histamine N-methyltransferase (Homo sapiens) (UniProt P50135); details: purified enzyme, MTase-Glo SAH luminescence; measured here: HNMT inhibition; at 40 µM; stronger effect = lower value
Procedure, shortened: as §1
% is scaled to controls: 0 for no effect and ±100 for the full control effect.

Structure (SMILES)	activity change, negative = inhibition [1] [%]	activity change, negative = inhibition [2] [%]	activity change, negative = inhibition [3] [%]	activity change, negative = inhibition [4] [%]	activity change, negative = inhibition [5] [%]
O=Nc1c(-c2c(O)[nH]c3ccc(F)cc23)[nH]c2ccccc12	-28.9	-47	-26.8	–	–
CCN(CC)c1ncnc2c1ncn2[C@@H]1O[C@H](COP(=O)(O)OP(=O)(O)C(Br)(Br)P(=O)(O)O)[C@@H](O)[C@H]1O	4.04	-4.47	5.53	-3.71	-1.45
CC(/C=C/c1cccc(Oc2ccc(F)cc2)c1)N(O)C(N)=O (stereo unspecified)	6.38	-11.4	0.76	-4.39	-1.86
COc1cccc(CNC(=O)c2ncn3c2C(=O)N(C2CC2)C(C)(C(=O)NCc2ccc(F)cc2)C3)c1 (stereo unspecified)	2.41	6.67	9.99	1.05	10.2
COCCCN1CCC(CNc2nccc(-c3cnn(C)c3)n2)C1 (stereo unspecified)	-5.34	-5.74	0.654	-5.11	-6.91
CC1(C(=O)NC2CCCCC2)Cn2c(cc3occc32)C(=O)N1Cc1ccccc1Br (stereo unspecified)	3.33	-2.83	-4.92	-6.53	-7.42
C=C(C)C(=O)O[C@H]1[C@H]2C(=C)C(=O)O[C@@H]2C[C@@H](C)/C=C\C(=O)[C@](C)(O)[C@@H]1OC(C)=O	7.26	-4.99	8.58	2.6	8.97
CO[C@@H]1CC[C@H](OC[C@]2(COC(=O)c3ccc(C)[nH]3)[C@H](OC(C)=O)CC[C@@]3(C)[C@@H]4CC=C(C)[C@@H](C5=C(O)C(=O)OC5O)[C@]4(C)CC[C@@H]32)O[C@H]1C (stereo partly specified)	-10.4	-20.3	-2.34	0	-2.29
O=C(/C=C/c1ccc(O)cc1)O[C@H]1[C@@H]2C=CO[C@@H](O[C@@H]3O[C@H](CO)[C@@H](O)[C@H](O)[C@H]3O)[C@@H]2[C@@]2(CO)O[C@@H]12	2.58	-9.14	4.56	0.266	1.58
CC1(C(=O)NC2CCCCC2)Cn2nc(-c3ccco3)cc2C(=O)N1Cc1ccc(Cl)cc1 (stereo unspecified)	0	0.004	-1.62	-7.28	1.18
COc1ccc2cc3n(c2c1)CC(C)(C(=O)NC1CCCC1)N(CCC(C)C)C3=O (stereo unspecified)	1.27	4.77	-5.78	-4.14	0.302
COc1ccc(/C=C\C(=O)O)c(O[C@@H]2O[C@H](CO)[C@@H](O)[C@H](O)[C@H]2O)c1	2.92	-8.64	4.17	0	1.93
c1ccc(CNc2cc(-c3cc(N4CCCCC4)ncn3)c3cc[nH]c3n2)nc1	-45.8	-51.2	-55.9	-52.9	-62.2
COc1cc2nc(N3CCCCC3)nc(NC3CCN(Cc4ccccc4)CC3)c2cc1OC	11.4	-53.2	0.166	–	–
Cc1ccc(NC(=O)CSc2nnc3n(Cc4ccc(F)cc4)c(=O)c4ccccc4n23)c(C)c1	0	5.39	5.69	8.86	12.8
CCN(CC)c1ncccc1CNC(=O)Nc1cccc(OC)c1	-2.31	-1.29	-0.439	-0.105	-6.11
O=C(NC[C@H]1O[C@@H](CO)[C@@H](O)[C@H]1N1CCOCC1)c1cccs1	-7.36	-7.33	-4.89	-4.34	-6.35
COc1ccc(-c2cc3n(n2)CC(C)(C(=O)NCc2ccccc2OC)N(Cc2ccccc2OC)C3=O)cc1 (stereo unspecified)	-0.529	-4.37	-4.54	0.757	1.73
CCC(=O)N1CCCC1c1nc(CCOCC2CCCC2)no1 (stereo unspecified)	-2.92	-4.35	3.09	-3.06	-2.07

Structure (SMILES)	activity change, negative = inhibition [1] [%]	activity change, negative = inhibition [2] [%]	activity change, negative = inhibition [3] [%]	activity change, negative = inhibition [4] [%]	activity change, negative = inhibition [5] [%]
O=S(=O)(c1ccccc1)N1CCN(c2ccnc3ccnn23)CC1	-3.98	-13	-1.94	-4.3	-0.844
CN1CC[C@@H](c2c(O)cc(O)c3c(=O)cc(-c4ccc(C(F)(F)F)cc4Cl)oc23)[C@@H]1CO	8.11	-36.2	7.78	5.22	6.29
Cn1c2c(c3ccccc31)C(C(=O)NCc1ccccc1)N(CCC1=CCCCC1)C(=O)CS2 (stereo unspecified)	0	-3.75	-0.775	0.814	1.55
CCC(C)NC(=O)c1ccc2c(=O)n(C)c3nn(CC(=O)Nc4cc(C)cc(C)c4)c(=O)n3c2c1 (stereo unspecified)	4.96	3.4	5.9	3.22	1.32
Cn1ncc(CN2CC[C@@H](c3ccc4c(c3)OCO4)[C@H](O)C2)c1C1CC1	-3.8	-3.43	1.33	-4.47	-0.902
CCCN1C(=O)c2c(C(=O)NCc3ccccc3OC)ncn2CC1(C)C(=O)NCc1ccc(F)cc1 (stereo unspecified)	0.71	-0.176	3.06	-7.87	-3.51
c1ccc(CCc2nc3nccc(-c4cccnc4)n3n2)cc1	-10.6	-7.86	-2.11	-8.79	-5.67
COc1ccc(-c2cc3n(n2)CC(C)(C(=O)NCc2ccccc2)N(c2cc(OC)cc(OC)c2)C3=O)cc1 (stereo unspecified)	0.07	11.8	3.91	6.16	11.1
CCC(C)NC(=O)c1ccc2c(=O)n(CCC(C)C)c3nn(CC(=O)Nc4cccc(C)c4)c(=O)n3c2c1 (stereo unspecified)	4.64	2.93	1.76	1.94	1.97
CCN1Cc2ccccc2N(CC(O)Cc2ccccc2)CCC1=O (stereo unspecified)	-3.89	-6.57	-1.92	-2.57	-1.9
O=C(O)CO[C@@H]1COCC[C@H]1NC(=O)CCCn1cncn1	-6.63	-8.98	-9.29	-6.07	-3.45
CC1CCC(NC(=O)Cn2ccc3cc(S(=O)(=O)N4CCCC4)ccc32)CC1 (stereo unspecified)	-2.4	-9.51	-28.2	-1.66	-8.42
CC(=O)/C=C/[C@H]1[C@](C)(O)[C@@H](O)[C@H](OC(C)=O)C2C(C)(C)CCC[C@@]21C (stereo partly specified)	-0.326	-12	-5.91	-1.09	6.84
Cn1cc(-c2cnc(Nc3ccc(F)c(Cl)c3)c3c2CCO3)cn1	-4.81	-3.78	-2.21	-5.55	-0.707
CCOC(=O)c1cc2n(n1)CC(C)(C(=O)NCc1ccc(Cl)cc1)N(c1ccc(OCC)cc1)C2=O (stereo unspecified)	0.36	3.25	4.95	3.53	6.32
O=C(c1ccc(F)cc1)N1CCC2(CNc3ccccc3[S+](=O)([O-])N2)C1 (stereo unspecified)	-8.24	-14.1	-8.94	-4.6	-0.885
C[C@@H](Nc1cc(NS(=O)(=O)N2CCC2)nc(SCc2cccc(F)c2F)n1)[C@@H](O)CO	4.71	-8.51	5.8	-0.936	12.2
COc1ccc(N2CCN(C(=O)CC3CCCCN(C)C3=O)CC2)cc1 (stereo unspecified)	-8.05	-14.5	-9.32	-6.89	-4.88
CCCn1c(=O)c2ccc(C(=O)NCC(C)C)cc2n2c(=O)n(Cc3ccc(F)cc3)nc12	1.1	1.15	4.07	2.11	6.41

Structure (SMILES)	activity change, negative = inhibition [1] [%]	activity change, negative = inhibition [2] [%]	activity change, negative = inhibition [3] [%]	activity change, negative = inhibition [4] [%]	activity change, negative = inhibition [5] [%]
Fc1ccccc1-c1noc(NCCc2ccc(Cl)cc2)n1	-6.34	-22	1.55	-11.2	-2.37
C=C1CCC2C(C)(COC3OC(COC(=O)CC(=O)O)C(O)C(O)C3O)CCCC2(C)C1CCC1=CCOC1=O (stereo unspecified)	-0.836	-13.4	0.849	0	-0.542
Cc1ccc([S+](=O)([O-])NC[C@@H]2CC[C@H]3C[C@@H]2C3(C)C)cc1	-7.94	-21.7	-18.1	-7.45	-3.25
C[C@@H](N)C(=O)N1CCC(C(=O)Nc2cccc(-c3cccc(Cl)c3)c2)CC1	-3.16	-9.7	-2.58	-6.21	-16
O=C(Nc1ccccc1)N1CCC2(C1)C(=O)N(CCc1ccccc1)c1ccccc12 (stereo unspecified)	-3.51	-1.31	-1.74	-4	-2.49
CC(C)CCN1C(=O)c2cc3ccccc3n2CC1(C)C(=O)NCc1ccccc1 (stereo unspecified)	2.08	2.9	1.08	2.5	6.83
CC1(C(=O)NC2CCCCCCC2)Cn2c(cc3ccccc32)C(=O)N1CCN1CCOCC1 (stereo unspecified)	4.27	-3.54	-4.67	0.944	0.916
O=C(Nc1ccc2[nH]c(=O)oc2c1)C(=O)N1CCC(Cc2ccc(F)cc2)CC1	2.09	-22.2	-6.1	-4.4	-1.59
CCCCCNC(=O)c1ccc2c(=O)nc3c(-c4ccccc4)n[nH]n3c2c1	-1.8	-9.29	-13.1	-11.5	-6.67
CCCn1c(=O)c2ccc(Cl)cc2n2c(SCc3ccc(F)cc3)nnc12	3	-2.64	3.67	-0.824	4.26
CC1(C)CC[C@]2(C(=O)O[C@@H]3O[C@H](CO)[C@@H](O)[C@H](O)[C@H]3O)CC[C@]3(C)C(=CCC4[C@@]5(C)C[C@@H](O)[C@H](O)[C@@](C)(CO)C5[C@H](O)C[C@]43C)C2C1 (stereo partly specified)	-1.61	-21.4	-11.3	-3.96	10.8
CCCCOc1ccccc1-c1cc2n(n1)CC(C)(C(=O)NC1CCCCC1)N(CC)C2=O (stereo unspecified)	4.25	-2.08	-1.12	-5.06	-1.66
CCCC1c2cccn2CCN1C(=O)Nc1ccccc1C(F)(F)F (stereo unspecified)	1.45	9.18	7.89	4.57	-61.2
CC(=O)Nc1nc(C)c(-c2ccc(Cl)c(S(=O)(=O)NCCO)c2)s1	6.33	-13.9	5.67	3.19	10.6
CCOc1ccc(CN2C(=O)c3ccc(-c4ccco4)n3CC2(C)C(=O)NC2CCCCC2)cc1 (stereo unspecified)	5.82	-1.5	-1.85	-4.21	-2.44
COc1cccc(CN2C(=O)c3cc4ccccc4n3CC2(C)C(=O)NC2CCCCC2)c1OC (stereo unspecified)	0.013	-1.36	-8.29	-2.48	2.52
COc1cc(O)c2c(c1)C1=C[C@H](O)[C@@H](O)C[C@]1(C)OC2=O	6.52	-8.12	3.06	-0.005	5.39
C[C@H]1CCCN1C(=O)c1nnc(CNCCCn2ccnc2)n1-c1ccccc1	-1.99	-8.03	11.6	-5.88	-1.8
Cc1cc(C(=O)N2CCCC(n3c(C)cnc3C3CCC3)C2)nn1C (stereo unspecified)	1.67	-5.29	-1.75	-0.455	-7.95
